# Reference: the supplement of paper PMC11417369
# ± gives the standard deviation of the averaged measurements. The list shows a part of the results.
# Test system: PfAP2-EXP AP2 domain (GST-tagged)
# Assay: gcPBM binding intensity (ln(normalized median fluorescence intensity)); higher = stronger DNA binding
# In short: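 Probes on an Agilent 4 × 180k array were primer-extended, double-stranded and 36 bp long, taken from intergenic genomic regions, with negative controls added. GST-tagged P. falciparum DNA-binding domains from E. coli, about 25 μg on average, were applied to the array for 1 h in 1× PBS containing 1% milk, 0.2 mg/ml BSA, 0.5% salmon testes DNA and 0.03% Triton X-100. Binding intensity, obtained after Alexa488 anti-GST antibody detection and a 488 nm scan, is the highest Masliner-normalised natural-log median intensity across replicate spots of either probe orientation.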
row,Sequence,gcPBM binding intensity (ln)
1,AAATAAAAAGGGTGCACACAAAAATATATATATATA [CACACA_site1728],10.5 ± 0.6
2,AAATAGTTGTTATGGGTGCAAACCACATATATATAA [GTGCAC_site9428],8.64 ± 0.099
3,AATATATACATACATACATGCACATATATATATATA [TGCATGCA_site393],9.82 ± 0.42
4,ATTTGTTTAAGTCACGAACACACATATATCATCAAT [CACACA_site985],8.62 ± 0.33
5,ATTATTTACCACAACACACAAATATTTACCAATCAT [CACACA_site5472],8.7 ± 0.41
6,AGGCCTTTTAGTATTTCACACACGTAAATGTGTATA [CACACA_site8284],8.6 ± 0.55
7,AATATAATATATTGCACACAAAAAGTGAATTATTCT [CACACA_site1684],8.75 ± 0.3
8,GTTTATTAGGAATTATGTACACAGTTTTATAAAGAA [XGTACX_site2994],8.68 ± 0.18
9,ACATTGAATAAATAATGTACATATATAATATATATT [XGTACX_site95],8.34 ± 0.23
10,AAATTAAATGTAAGCACACATAAATTATACGCATAT [CACACA_site3335],8.6 ± 0.38
11,TTGCAGTATTTCGGAACACACAAACATAAATATGTA [CACACA_site5307],8.37 ± 0.39
12,TATAATAATCCACAAGCACACACACCCACATATATA [CACACA_site8343],8.78 ± 0.39
13,AGTAGTCTGGAGAAAAGTACACAGTATCTGGTAGCT [XGTACX_site2544],8.41 ± 0.42
14,GATCTTTCACATATATATATAAAGGATATTATGGTA [CACACA_negctrl_site522],8.37 ± 0.4
15,AAATATTATTCATTTTGTACGTATAATTTTTAATGA [XGTACX_site3509],8.71 ± 0.32
16,TTATTACACAAATGGTGTACTTTTGAGGAACCAAAA [XGTACX_site4279],8.31 ± 0.3
17,ATTATATTATATTATACATGCATAATATTATATAAA [TGCATGCA_site647],8.46 ± 0.092
18,TTTTCATTCTTTTCCTTTGATTTACAATAGTATATT [GTGCAC_negctrl_site687],8.65 ± 0.53
19,TCATTATATTATTCTTGTACTTATATCCTTTTTTGA [XGTACX_site5320],8.74 ± 0.3

row,Sequence,gcPBM binding intensity (ln)
1,TAAAAGTTCACCTGTACACACATATATATCTGTACA [CACACA_site5019],8.68 ± 0.36
2,AAAAAATAAAAGTGGGGTACATGTCATTATGTGCAT [XGTACX_site3753],8.86 ± 0.4
3,CAAAATATTATCATGATGCACTTTACACTCTAAGGT,8.59 ± 0.21
4,TATTTTTAAAAGTTAACAGAAAAAATATAAATAAAT [GTGCAC_negctrl_site295],8.5 ± 0.81
5,TGGTATATACGACACACACACATATGTATAAATATA [CACACA_site6561],8.94 ± 0.41
6,TGTAATAAAATAATTAGTACACATATATGTATATTT [XGTACX_site5896],8.31 ± 0.29
7,TACCATAATCAATGCACACATAACAAAATATTATTA [CACACA_site2722],8.38 ± 0.32
8,TTTTCCCTTTTTTCCGCACACAATAAAATAAATAAA [CACACA_site2807],8.71 ± 0.32
9,ATATATATATAATGTTGTACGTTTTATTCTCCCATT [XGTACX_site8071],9.72 ± 0.23
10,TTTATCATGAACAGAAGTACATTTATATCAATGTCT [XGTACX_site6470],8.35 ± 0.39
11,ATATATATATATTTTACACACAATGGAGAAAAAAAT [CACACA_site644],9.75 ± 0.26
12,TTTACACTTTTTTTTGTACACACTAAAAAGATTAAC [CACACA_site3933],8.62 ± 0.35
13,TTTTTCAGAAAAGAAACACACATATAAATATTTATA [CACACA_site7170],8.47 ± 0.46
14,AAAAAAAAAAAAAAAACACACAAGGATCAGATAGAT [CACACA_site7743],8.48 ± 0.099
15,TGTTGTTACCTATATACACACATATAAATATTATAG [CACACA_site7180],8.65 ± 0.47
16,AATATTATGATATTATGTACATATTAAAAGCACCAC [XGTACX_site6236],9.24 ± 0.21
17,AGGGCATATATATATGCACACATACATATATACATG [CACACA_site9282],8.42 ± 0.38
18,AAAAAAAAAAAAAAAAAAACTAATATAATAAAAATA [TGCATGCA_negctrl_site150],8.6 ± 0.057
19,AAAAAAATAATATAATATTAAATCTTAGTTAATAAA [GTGCAC_negctrl_site658],7.92 ± 0.33

row,Sequence,gcPBM binding intensity (ln)
1,TATGCATATACACAAGCACACATATATATATATATA [CACACA_site8266],10.1 ± 0.32
2,TTTTTTTTTTTTTACACACCCAAATCACATACATAT [CACACA_site6089],8.59 ± 0.44
3,TTTTTTTTTTTTTTTTCTTTTTTTTTTTTAAATAAG [XGTACX_negctrl_site418],7.88 ± 0.32
4,TATAATAAATATACTGGTACACAAATATATATATTT [XGTACX_site7741],8.48 ± 0.32
5,AACATCTTATCATCATGTACGAAGCAGTTTTATAAG [XGTACX_site2490],8.59 ± 0.52
6,ATATTATATTTACATAGTACACTATATGTATATATA [XGTACX_site2101],8.26 ± 0.13
7,TGTAATTTTTTACGTTGTACATATATTAACAATATA [XGTACX_site3991],8.5 ± 0.31
8,TAAAAAAGAAAAAGAGCACACAAAAATATTTAACCT [CACACA_site8885],8.71 ± 0.59
9,TATATATTTATATATTGTACACTCTTATGTAGTGTA [XGTACX_site210],8.29 ± 0.3
10,TTACATATTTTCATTTGTACATATTCATTTTTTTTC [XGTACX_site6988],8.71 ± 0.47
11,AAATAACCCACGTGCATGCACTTCAATAACTGAACT,10.1 ± 0.27
12,ATTTTTATATTTAATACACACATAAAATCATACCAT [CACACA_site23],8.65 ± 0.41
13,ATGTCAGGGAAAAAAACACACAAGAGTATGATATGT [CACACA_site2180],8.7 ± 0.35
14,TAACCAAAAAAAAATATTTAAAATAAATATATATAT [CACACA_negctrl_site1516],9.425 ± 0.021
15,ATAACATACATAACAACACACAATATTTATAGGTAT [CACACA_site6243],8.73 ± 0.57
16,TTTAGTTCATACTATGCACACTACGTATATTTTTAA [CACACA_site5484],8.7 ± 0.26
17,TATTTTCTCTTAAAAAGTACTCATATATACATTTAT [XGTACX_site7748],8.38 ± 0.15
18,ATTAATAAGAAGAAAAGTACAAAACAAAAAGATATA [XGTACX_site7473],9.03 ± 0.5
19,CGTTATATATTTTATAGTACTTTTTGTAAATTTTTT [XGTACX_site7682],8.6 ± 0.38
